Experimental data: PubChem BioAssay AID485281 (National Center for Advancing Translational Sciences (NCATS), 2010)
In all, about 350,000 compounds went through this assay and about 260 (0.074%) were called active. The shares of active, inactive and inconclusive entries below differ from those in the screen. Calls come from the whole dose curve; as a rule, active = well fitted inhibition curve with a large enough effect; inconclusive = small, poorly fitted or top-dose-only effect; inactive = no such curve, though single readings can be large or run the other way. Potencies beside an inconclusive call are fits to weak or partial responses and may not hold up.

These compounds were tested against Ferritin light chain (Equus caballus) (UniProt P02791) (assay: qHTS Assay for Identification of Novel General Anesthetics). Conditions: apoferritin/1-aminoanthracene competitive binding, fluorescence; activity change, negative = displacement: at 77.5 µM (top of the series).
UniProt P02791, sequence (P02791 whole entry, looked up): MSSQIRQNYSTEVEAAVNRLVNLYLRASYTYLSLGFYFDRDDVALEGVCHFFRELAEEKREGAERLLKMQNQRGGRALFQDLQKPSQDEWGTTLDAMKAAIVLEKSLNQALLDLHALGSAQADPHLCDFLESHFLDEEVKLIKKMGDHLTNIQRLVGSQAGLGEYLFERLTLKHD
In short: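 Apoferritin-based anesthetic binding model; compound displacement of fluorescent 1-AMA measured as endpoint fluorescence after 10 minutes at room temperature, scaled to free-ligand and complex controls.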
% is set by controls: 0 for no effect and ±100 for the full control effect; potency is the fitted concentration of half-maximal effect; tags give direction and shape of the fitted curve.
Note: nearly all actives have a fitted effect of over 20% in size.

SMILES	Potency	activity change, negative = displacement
CN1CCN(C2=Nc3c(Cl)cc(Cl)c4cccc2c34)CC1	inconclusive: 31.6 µM [inhibitor, partial curve]	–
CCOC(=O)c1c(-c2ccco2)csc1NC(=O)CSc1nnc(N)s1	inconclusive: 31.6 µM [inhibitor, partial curve]	–
CC1CCN(C(=S)c2cccc(O)c2)CC1	inconclusive: 20 µM [inhibitor, partial curve]	–
Fc1ccc(CN2CCSCC2)cc1Br	inconclusive: 25.1 µM [inhibitor, partial curve]	–
COc1ccc(S(=O)(=O)N(CCCN2CCCC2=O)Cc2cc3cc(C)c(C)cc3[nH]c2=O)cc1	inconclusive: 15.8 µM [inhibitor, partial curve]	–
CN1C(=O)CS(=O)c2ccc(C(=O)NCCC3=CCCCC3)cc21 (configuration not stated)	inconclusive: 35.5 µM [inhibitor, partial curve]	–
Cc1ccccc1NC(=O)c1cccc(N2C(=O)C3C4CCC(C4)C3C2=O)c1 (configuration not stated)	inconclusive: 35.5 µM [inhibitor, partial curve]	–
Clc1ccc(-n2ncc3c(NCc4ccc5c(c4)OCO5)ncnc32)cc1	inconclusive: 7.08 µM [inhibitor, full curve]	–
O=S(=O)([O-])CCC[n+]1c(/C=C\Nc2ccccc2)oc2ccc(-c3ccccc3)cc21	inconclusive: 35.5 µM [inhibitor, partial curve]	–
O=[N+]([O-])c1cc2cccnc2c2ncccc12	–	inactive: -4.38%
CCN1C(=O)[C@H]2[C@@H](c3ccc(C)cc3)N3C(=O)N(c4ccc(OC)cc4)C(=O)[C@@]3(Cc3ccc(Cl)cc3)[C@H]2C1=O	inconclusive: 7.08 µM [inhibitor, full curve]	–
Cc1ccc(C(=O)COC(=O)COc2ccccc2C)cc1	inconclusive: 50.1 µM [inhibitor, single point]	–
O=C1Nc2ccc([N+](=O)[O-])cc2OC1CCN1CCN(Cc2ccccc2)CC1 (configuration not stated)	inconclusive: 31.6 µM [inhibitor, partial curve]	–
Nc1c(C(=O)NCc2ccc3c(c2)OCO3)nnn1-c1ccc(OC(F)(F)F)cc1	inconclusive: 6.31 µM [inhibitor, full curve]	–
O=C(CCC(=O)N/N=C/c1ccc(Br)s1)NCc1ccccc1	–	inactive: -7.33%
CCN(CC)S(=O)(=O)c1ccc(N2CCOCC2)c(NC(=O)c2ccc(C#N)cc2)c1	inconclusive: 25.1 µM [inhibitor, partial curve]	–
Cc1ccc(N(CC(=O)Nc2cc(C)cc(C)c2)S(=O)(=O)c2cccc3nonc23)cc1	inconclusive: 1.78 µM [inhibitor, full curve]	–
O=C(Oc1ccc(C(=S)N2CCOCC2)cc1)c1ccc([N+](=O)[O-])cc1	–	inactive: -9.89%
O=C(CCn1nc(-c2ccc(Cl)cc2)c2ccccc2c1=O)NCC1CCCO1 (configuration not stated)	inconclusive: 8.91 µM [inhibitor, full curve, poor fit]	–
COC(=O)CCc1c(C)[nH]c(C(=O)OCc2ccccc2)c1C	inconclusive: 39.8 µM [inhibitor, partial curve]	–
Nc1cccnc1Sc1cc(Cl)c(Cl)cc1Cl	inconclusive: 22.4 µM [inhibitor, partial curve, poor fit]	–
N#C/C(=C\c1cn(-c2ccccc2)nc1-c1cccnc1)c1nnc2n1CCCCC2	–	inactive: -18.3%
Cc1ccccc1COC(=O)CCCC1=NS(=O)(=O)c2ccccc2N1	–	inactive: -6.59%

SMILES	Potency	activity change, negative = displacement
O=C(O)COc1ccccc1/C=N/NC(=O)CSc1nnc(SCc2ccc(Cl)cc2)s1	inconclusive: 56.2 µM [inhibitor, single point]	–
O=c1[nH][nH]cc1C=Nc1ccccc1O	–	inactive: -21.3%
CS(=O)(=O)n1nc(OC(=O)c2cccc3ccccc23)cc1N	inconclusive: 39.8 µM [inhibitor, partial curve]	–
O=C(c1ccc(S(=O)(=O)c2ccccc2Cl)c([N+](=O)[O-])c1)N1CCN(Cc2ccccc2)CC1	inconclusive: 20 µM [inhibitor, partial curve]	–
CCOC(OCC)c1cn(Cc2ccc3c(c2)C(=O)c2ccccc2C3=O)nn1	inconclusive: 35.5 µM [inhibitor, partial curve]	–
O=S1(=O)C=C(SCc2ccc(F)cc2)Nc2ccccc21	inconclusive: 14.1 µM [inhibitor, partial curve]	–
COCCN=C1Sc2nc3ccc(C)cc3cc2CN1Cc1cccs1	inconclusive: 15.8 µM [inhibitor, partial curve]	–
CCOc1ccc(-n2c(=S)sc3c(=O)n(-c4ccccc4)c(SCC(=O)O)nc32)cc1	–	inactive: 13.2%
COc1cc2cc(C#N)c(SCC(=O)N3CCOCC3)nc2cc1OC	–	inactive: -10%
O=C(Nc1nc2ccc(F)cc2s1)c1nc(S(=O)(=O)Cc2ccccc2)ncc1Cl	inconclusive: 31.6 µM [inhibitor, partial curve]	–
O=C(COC(=O)Cn1cnc2ccccc21)Nc1ccc2c(c1)C(=O)c1ccccc1C2=O	–	inactive: -3.52%
CCOC(=O)CSC1=C(C#N)C(c2ccccc2OC)CC(=O)N1 (configuration not stated)	–	inactive: -2.73%
COc1ccc(NC(=O)C(=O)NCC(=O)Nc2cc(OC)ccc2OC)cc1	–	inactive: -6.75%
CCOc1ccc(-c2[nH]ncc2Oc2cccc(OC)c2)c(O)c1	inconclusive: 31.6 µM [inhibitor, partial curve]	–
CC(C)c1ccc(C2N=C(N)Nc3nc4ccccc4n32)cc1 (configuration not stated)	inconclusive: 50.1 µM [inhibitor, single point]	–
CCc1ccc(CNC(=O)CN2C(=O)c3cccnc3Oc3ccc(C)cc32)cc1	inconclusive: 50.1 µM [inhibitor, single point]	–
C(=C\c1nc(N2CCCCCC2)c2ccccc2n1)/c1ccccc1	inconclusive: 10 µM [inhibitor, partial curve]	–
CSc1ncc(Cl)c(C(=O)N(Cc2ccc(N(C)C)cc2)Cc2ccco2)n1	inconclusive: 22.4 µM [inhibitor, partial curve]	–
O=C(CC(=O)Nc1cccc(Cl)c1)N/N=C\c1ccccc1	inconclusive: 14.1 µM [inhibitor, partial curve]	–
Cc1ccc(C(=O)NNc2cc(N3CCCC3)nc(N3CCCC3)n2)cc1	inconclusive: 17.8 µM [inhibitor, partial curve]	–
COc1ccc(/C=N\NC(=O)c2cc(O)c(O)c(O)c2)cc1CN1CCN(c2ccc(F)cc2)CC1	inconclusive: 12.6 µM [inhibitor, partial curve]	–
CCOC(=O)C1CCN(C(=O)C2CCN(C3=NS(=O)(=O)C(c4ccc(C)c(C)c4)=C3C)CC2)CC1	inconclusive: 25.1 µM [inhibitor, partial curve]	–
CC(c1ccc(Cl)cc1)n1c(-c2ccc3ccccc3n2)n[nH]c1=S (configuration not stated)	inconclusive: 31.6 µM [inhibitor, partial curve]	–

SMILES	Potency	activity change, negative = displacement
CCOC(=O)c1[nH]c(C)c(CCC(=O)NCc2ccccc2Cl)c1C	–	inactive: -2.54%
O=C(COc1ccccc1)NCCSCc1ccccc1Cl	inconclusive: 35.5 µM [inhibitor, partial curve]	–
COCCn1c(=O)[nH]c2cc(C(=O)NCCCN3CCN(c4ccc(F)cc4)CC3)ccc2c1=O	–	inactive: -7.06%
NC(=O)C1(N2CCCCC2)CCN(CCCC(=O)c2ccc(F)cc2)CC1	–	inactive: -9.55%
COc1ccc2o/c(=N/NC(=O)c3cccs3)c(C(N)=O)cc2c1	–	inactive: -16.7%
CCC(C)Nc1ncnc2c1cnn2Cc1ccc(Cl)cc1 (configuration not stated)	inconclusive: 15.8 µM [inhibitor, partial curve]	–
CCCCC(CC)CNC(=O)C1CCC(CNS(=O)(=O)c2cccc3nsnc23)CC1 (configuration not stated)	inconclusive: 22.4 µM [inhibitor, partial curve]	–
O=C(CC1C(=O)OCCN1Cc1ccccc1)Nc1ccc(F)cc1 (configuration not stated)	inconclusive: 28.2 µM [inhibitor, partial curve]	–
Cc1nc2ccccc2n1CCOc1ccc([N+](=O)[O-])cc1	–	inactive: -16%
Cc1ccccc1Cn1cnc2ccccc21	inconclusive: 39.8 µM [inhibitor, partial curve]	–
Cc1ccc(C2=N/C(=C/c3cccs3)C(=O)N2Nc2ccccc2)cc1	inconclusive: 3.55 µM [inhibitor, full curve]	–
Cn1c(NCc2cc(Br)ccc2O)nc2ccccc21	inconclusive: 10 µM [inhibitor, partial curve, poor fit]	–
Cc1cc2ncn(C(=O)c3c(-c4ccccc4Cl)noc3C)c2cc1C	inconclusive: 31.6 µM [inhibitor, partial curve]	–
COc1ccc(OCC(=O)Nc2ccc(S(=O)(=O)N3CCOCC3)cc2)cc1	inconclusive: 35.5 µM [inhibitor, single point]	–
CC(C)=CCC/C(C)=C/CO/N=C1/C[C@@H](O)[C@@H](O)[C@@H]2[C@@H]3C(=O)N(Cc4ccc5c(c4)OCO5)C(=O)[C@H]3CC[C@H]12	–	inactive: -3.62% [at 15.3 µM]
Cc1cc([N+](=O)[O-])c(C(C)(C)C)cc1N	inconclusive: 28.2 µM [inhibitor, partial curve]	–
CCN1C(C)=C(C(=O)OC(C)C)C(c2ccccc2Cl)C(C(=O)O)=C1C(=O)O (configuration not stated)	–	inactive: -6.61%
CCSc1nnc(NC(=O)[C@@H](NC(=O)c2cccc(C)c2)C(C)C)s1	inconclusive: 35.5 µM [inhibitor, partial curve]	–
O=C(CC1C(=O)OCCN1Cc1ccccc1)Nc1cccc(C(F)(F)F)c1 (configuration not stated)	inconclusive: 15.8 µM [inhibitor, partial curve]	–
CSC1=C(C#N)C(c2ccc(Cl)cc2)C2=C(CC(C)(C)CC2=O)N1 (configuration not stated)	–	inactive: -21.2%
Cc1nnc(SCC(=O)OC2CC(C)CCC2C(C)C)[nH]c1=O (configuration not stated)	inconclusive: 44.7 µM [inhibitor, single point]	–
